The text below walks through data of paper PMC12040169 (PLOS Biology, 2025).

The list shows a part of the results.

The test system of this assay is T1, C. trachomatis L2/434/Bu expressing GFP (CTL2-GFP).
T1 construct: L2/434/Bu GFP intracellular growth in HeLa cells
Set-up: species or system HeLa; C. trachomatis total inclusion area by high-content imaging, normalised to DMSO. As to conditions: total inclusion area; 28.5 h, 10 µM; inhibitor. The essentials: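 Following bulk GFP and resorufin fluorescence reads, infected cells were fixed, Hoechst-stained and imaged on a high-content platform. Inclusion total area and number per well served as growth proxies; nuclei counts indicated host viability. MICs were derived as for the fluorescence assay.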
In the case of `O=C(O)COc1cccc(NC(=O)c2ccccc2)c1` [CBK264602], the “% of control remaining” value is listed as 111.229.
Regarding `O=S(=O)(NC1CCN(Cc2ccccc2)CC1)c1cccc2nsnc12` [CBK062029], the “% of control remaining” value is on record as 84.6055.
For `CCN(CC)c1ccc(/C=N/NC(=O)CC2=NNC(=O)C2)cc1` [CBK020059], the “% of control remaining” value worked out at 115.366.
Next, `Cc1[nH]nc(-c2ccc(O)c(C)c2O)c1Oc1ccc(F)cc1` [CBK264478]: 83.2583.
The same measure for `COc1ccc(C2(C(=O)Nc3ccc(-c4ccccc4OC)cc3)CCOCC2)cc1` [CBK285710]: 88.4162; for `COc1ccc(-c2nc(-c3ccc(C#N)cc3)cnc2N)cc1OC` [CBK063885]: 64.5384.
Consider `O=C(Nc1ccccc1C(=O)Nc1ccccc1C(=O)O)c1ccccc1` [CBK261551], for which the “% of control remaining” value was 88.0466.
The same measure for `Cn1nc(C(=O)NCCSc2n[nH]c(=O)[nH]c2=O)c2ccccc2c1=O` [CBK297501]: 98.4436; for `O=C(NC1(c2ccccc2)CC1)c1cc(-n2cnnc2)ccc1Cl` [CBK282777]: 82.2997; for `CCCCn1cc(CN(C)C)c2c(C)ccnc21` [CBK008697]: 45.9488.
As for `COc1ccc(C(C)C)cc1-c1cnc2nc(O)ccc2c1` [CBK081286], the “% of control remaining” value is 55.9109.
The same measure for `O=[N+]([O-])c1ccc(N2CCNCC2)cc1NCc1ccccn1` [CBK268074]: 126.223.
For the compound `O=C(O)CCCCn1c2c(c3ccccc31)CCCC2` [CBK000253], the “% of control remaining” value was found to be 94.3653.
Take `CC1CCN(Cc2ccc(-c3cn(CC(=O)NCc4ccc(OC(F)(F)F)c(F)c4)nn3)cc2)CC1` [CBK167536]: the “% of control remaining” value came out at 27.9695.
In the case of `COc1ccccc1CN(C)C(C)=O` [CBK024120], the “% of control remaining” value came out at 84.6653.
Next, `O=C(O)/C(=C\c1ccc(Cl)cc1)NC(=O)c1ccccc1I` [CBK265701]: 97.7796.
Next, `NS(=O)(=O)c1ccc(NC(=O)c2cc([N+](=O)[O-])ccc2N2CCOCC2)cc1` [CBK268972]: 102.519.
The same measure for `COc1cncc(-c2ccc(Nc3ccc(OC)nc3)nc2)c1` [CBK037773]: 145.347; for `C#CCNC(=O)c1nn(Cc2ccc(CN3C(=O)CCC3=O)cc2)c2ccc(OC)cc12` [CBK048668]: 108.58; for `Cc1ccc(C2(O)CC3CCC(C2)N3C(=O)C2CCC2)cc1` (stereo not drawn) [CBK103860]: 95.5603.
With `COc1ccnc(N2CCCN(CCN3CCOCC3)CC2)n1` [CBK084120], the “% of control remaining” value is given as 79.9134.
Next, `O=c1c2ccsc2ncn1Cc1nnc(-c2ccc(Br)o2)o1` [CBK295642]: 82.7483; `O=S(=O)(Cc1cccc(F)c1F)c1cc2c(N3CCNCC3)nccc2s1` [CBK045690C]: 78.9034; `COc1ccc(-c2cc3cccnc3n2CC(=O)NC(C)C)cc1` [CBK285380]: 120.247.
Regarding `Cc1nc2c(C(=O)N3CCOCC3)cnn2c(C)c1Cc1ccccc1` [CBK162201], the “% of control remaining” value was 71.338.
As for `c1ccc(CCNc2cncc(-c3cccs3)n2)nc1` [CBK065510], the “% of control remaining” value is reported as 119.278.
The same measure for `O=C(COc1ccc(Cl)cc1)NCCc1ccc(S(=O)(=O)NC(=O)NC2CCCCC2)cc1` [CBK013261]: 110.986; for `Cc1cc(C(=O)NCCn2nc(C)c(C)c2C)c2cccc(C)c2n1` [CBK281388]: 88.1379; for `Cc1csc(C(Cc2ccsc2)NC(=O)c2ccc(=O)[nH]c2)n1` (stereo not drawn) [CBK285109]: 94.4576.
The same measure for `COc1ccc(NC(=O)c2ccc(-c3ccc(Nc4ccc5c(c4)OCCO5)nc3)cc2)cc1` [CBK036815]: 101.632.
The same measure for `CC1Cc2ccccc2N1CCNC(=O)Cc1cn2ccsc2n1` (stereo not drawn) [CBK306499]: 141.357; for `CC(C)(C)NC(=O)NC1CCC2(CC1)CC(=O)c1ccccc1O2` (stereo not drawn) [CBK283390]: 70.1434; for `CN(C)C(=O)C1(Cc2ccccc2-c2cccnc2)CCN(Cc2ccccc2)CC1` [CBK285522]: 94.5299.
With `O=C(O)CCC(=O)c1c[nH]c2ccccc12` [CBK261275], the “% of control remaining” value is recorded as 90.3455.
Next, `Cc1ccn2c(=O)cc(COC(=O)c3sc4nc(C)cc(C)c4c3N)nc2c1` [CBK297783]: 92.7581.
The same measure for `Cc1nn(C)cc1-c1cncn1C(C)Cc1c(C)nn(C)c1C` (stereo not drawn) [CBK281786]: 96.3398; for `CS(=O)(=O)N(CC(=O)N1CCN(Cc2ccc3c(c2)OCO3)CC1)c1cccc(C(F)(F)F)c1` [CBK265329]: 81.4528; for `c1cc(OCCN2CCCC2)c2cc[nH]c2c1` [CBK083478]: 86.6629.
Take `CCOC(=O)c1c(CN(C)C)n(-c2ccccc2)c2cc(Br)c(O)cc12` [CBK261309C]: the “% of control remaining” value was 98.6604.
The same measure for `COCCNC(=O)c1cc(-c2cccc(N(C)C)c2)cnc1NCC1CC1` [CBK076288]: 99.5259; for `NC(=O)[C@@H]1C[C@@H](O)[C@H](O)[C@H]2[C@@H]1N(c1ccc(Cl)cc1)C(=S)N2Cc1cccs1` [CBK288930]: 116.787.
With `O=C(N[C@H]1C[C@H]2C(=O)Nc3ccccc3C(=O)N2C1)c1ccccc1` [CBK289354], the “% of control remaining” value is 78.4959.
The same measure for `Cc1noc(C)c1C(=O)N1CCCCCC1c1ccn(C)n1` (stereo not drawn) [CBK284917]: 83.7822.
Regarding `O=C(C(c1ccccc1)c1ccccc1)N1CCN(c2ncccn2)CC1` [CBK144504], the “% of control remaining” value worked out at 105.808.
Next, `COc1cccc2cc(C(=O)NCc3ccc4c(c3)OCO4)oc12` [CBK149797]: 91.1222.
The same measure for `COc1cc(C)cc(OC)c1-c1ncnc(C)c1C` [CBK306762]: 66.5732.
Next, `CO[C@@]12CC[C@@H](O)C[C@@H]1N(C(=O)c1cccc3c1NCCC3)CC2` [CBK306741]: 77.1963; `O=C(O)c1ccc(OCCN2CCOCC2)cc1` [CBK287038]: 75.5227; `Cc1ccc(C)c2[nH]c(=O)c(CN(CCN3CCOCC3)Cc3nnnn3Cc3ccccc3)cc12` [CBK108063]: 103.49.
As to `CNC(=O)C1(Cc2ccccc2-c2cccs2)CCN(C(=O)CCc2ccccc2)CC1` [CBK285900], the “% of control remaining” value was found to be 94.6432.
The same measure for `CCc1ccc2[nH]c3nc(NN)nnc3c2c1` [CBK262734]: 59.9588.
